Results as given in the supplement of paper PMC3334620.
Whole data set: some 33,000 sequences, median “E-score (-0.5 to 0.5)” near -0.054, cut for the highest 2% near 0.35. Some of the results follow.

biological target: T1, Stb5 (UniProt P38699); experiment: PBM E-score (8-mer binding enrichment) (E-score (-0.5 to 0.5)); higher = stronger / more preferred TF binding; most listed sequences are background and not binding sites; details: protein concentration: 200 nM; construct: GST-full length
T1 sequence: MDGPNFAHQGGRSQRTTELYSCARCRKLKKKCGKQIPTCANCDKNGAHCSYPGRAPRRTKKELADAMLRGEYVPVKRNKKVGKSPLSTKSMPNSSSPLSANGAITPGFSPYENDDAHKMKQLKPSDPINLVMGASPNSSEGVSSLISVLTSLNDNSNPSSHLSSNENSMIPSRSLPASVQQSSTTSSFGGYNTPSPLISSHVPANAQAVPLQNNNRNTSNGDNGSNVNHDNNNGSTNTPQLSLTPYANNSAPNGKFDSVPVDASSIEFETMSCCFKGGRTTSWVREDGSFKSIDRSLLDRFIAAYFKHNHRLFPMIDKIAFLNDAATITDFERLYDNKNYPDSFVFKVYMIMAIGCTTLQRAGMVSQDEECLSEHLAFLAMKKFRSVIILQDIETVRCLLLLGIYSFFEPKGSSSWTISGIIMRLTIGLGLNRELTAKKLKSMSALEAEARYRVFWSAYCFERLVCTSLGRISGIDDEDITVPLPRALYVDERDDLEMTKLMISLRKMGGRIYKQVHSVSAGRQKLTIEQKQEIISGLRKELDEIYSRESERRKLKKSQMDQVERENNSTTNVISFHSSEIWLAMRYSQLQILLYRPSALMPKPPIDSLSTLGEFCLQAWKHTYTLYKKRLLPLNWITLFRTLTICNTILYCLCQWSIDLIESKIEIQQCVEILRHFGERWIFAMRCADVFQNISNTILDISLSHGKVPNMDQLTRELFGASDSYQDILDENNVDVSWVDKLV
Method: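 Universal 'all 10-mer' protein binding microarrays (Agilent AMADID 015681) probed with GST-tagged S. cerevisiae TFs (full-length or DBD) made by in vitro transcription/translation (PURExpress), about 100-200 nM. Bound TF was detected with fluorescent anti-GST. Each ungapped 8-mer (which stands for itself and its reverse complement) is scored by the PBM enrichment score (E-score), a modified Wilcoxon-Mann-Whitney statistic from -0.5 to +0.5, computed with the Universal PBM Analysis Suite. Scale: above 0.35 generally sequence-specific binding.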

Row | Sequence | PBM E-score
1 | ACGCTGTA | -0.163
2 | CTATAATC | 0.019
3 | CTGCCGCA | 0.0632
4 | AATGCCGA | 0.419
5 | CACCCGAA | 0.0469
6 | GTCGTCGA | -0.0575
7 | AGCGCCGC | 0.41
8 | GGCGAAAA | 0.0996
9 | AGCAGAGA | -0.288
10 | ACGAAATG | -0.178
11 | GAAGTCCA | -0.0947
12 | GCATTTAA | 0.18
13 | CCATCGCG | 0.195
14 | CCGAGCAC | 0.00436
15 | AGAAGGCA | -0.169
16 | ACTAGAGG | 0.0762
17 | ATCACTCA | -0.212
18 | GGGAGCGA | -0.286
19 | GATCTAAA | 0.159
20 | GATACTCA | 0.158
21 | GACTCGCC | -0.131
22 | CCGAGTGA | 0.1
23 | GGGATGCA | -0.232
24 | ACAATCTA | -0.243
25 | GCTTAGCC | 0.127

Row | Sequence | PBM E-score
26 | CATCTGGG | -0.279
27 | CGCACACC | 0.0245
28 | ACGGCTTA | -0.0299
29 | ATCTACCG | 0.122
30 | AACTAGAG | -0.163
31 | TGACTGAA | -0.169
32 | AGACACGA | -0.175
33 | AATTACAA | -0.176
34 | AGATTTAT | 0.169
35 | GGGGACGA | -0.0481
36 | AACATAAA | -0.0956
37 | ACAACACG | -0.192
38 | TTAGGCAA | -0.13
39 | CCATACGG | 0.124
40 | CATATCAG | -0.0257
41 | GATTGCGA | 0.0469
42 | CGGTTGAC | 0.0802
43 | AGATTCTG | -0.218
44 | CGTAAAGA | -0.0109
45 | CTGCTAGA | 0.0321
46 | CAGACCCA | -0.22
47 | GCGTCCTA | -0.159
48 | CCCGGCCG | 0.273
49 | GGGTACCC | -0.0555
50 | CAAAGCCA | -0.19

Row | Sequence | PBM E-score
51 | CATACATC | -0.0389
52 | AATACTGG | -0.142
53 | CCCAGCAC | -0.126
54 | CGCGGTGC | 0.378
55 | ATCCACAT | -0.136
56 | AGGGGAGG | -0.0499
57 | AAACAGTG | -0.162
58 | CAACTTCG | -0.162
59 | AATATTTG | -0.0964
60 | AGCGTCCA | -0.15
61 | CTTCCTGA | -0.258
62 | CGATTGAC | -0.0756
63 | ATACGGGA | 0.228
64 | ACCCGACA | 0.233
65 | CCTATATA | 0.0669
66 | ACGCCAGA | -0.169
67 | CAAGCTAA | -0.204
68 | AGACTCCG | 0.304
69 | GATGCCAC | -0.155
70 | ACCTTAAC | -0.0196
71 | AGTTTCGC | -0.147
72 | GGTGTATA | 0.171
73 | AACCGTCC | -0.0366
74 | ACCAGCCC | 0.211
75 | ATTAAGAG | 0.123

Row | Sequence | PBM E-score
76 | ATCCGACA | 0.283
77 | CACCACAC | 0.0458
78 | CGTGACAG | -0.0301
79 | CCGAAGCA | 0.07
80 | CAACATTG | 0.0608
81 | AGCGCGGG | 0.111
82 | CATGTAGA | 0.00676
83 | ATCTGCAC | -0.0817
84 | GCTGGATA | -0.235
85 | AGACGATG | 0.0118
86 | GACTTTCC | -0.0068
87 | GAGGAAAC | 0.0678
88 | CAGTGGGG | -0.291
89 | ACCAGGCC | -0.135
90 | TAAATCGA | -0.267
91 | CCCGCTAA | 0.261
92 | AACAGATA | -0.0868
93 | ACCTATAA | 0.0419
94 | ATCGAGTC | -0.158
95 | CTGCTGTC | -0.0444
96 | CACTAGTA | -0.159
97 | GACTTACA | 0.0197
98 | GCGGTGCC | 0.387
99 | GATGCCTA | -0.219
100 | GCTGCGTA | -0.288

Row | Sequence | PBM E-score
101 | CAGGTGTA | -0.204
102 | GCGCGGAA | 0.165
103 | GAAGGGCC | 0.115
104 | GTCCAATA | 0.0373
105 | GAGACGCA | 0.0862
106 | CAGTGAAC | -0.293
107 | GTAACCAA | -0.0187
108 | ACTTTCAA | 0.0549
109 | GATAAGAC | -0.0658
110 | GACGTAAA | 0.102
111 | GCCTGCGC | -0.144
112 | ACACCGGA | 0.402
113 | CATGCGGG | 0.108
114 | ATGGCTAC | -0.327
115 | AGGCGGGA | 0.234
116 | CAAGCGTC | -0.132
117 | GAGACATC | -0.154
118 | GACTACTA | -0.108
119 | CTATAAGC | 0.128
120 | AAGAAAAT | -0.019
121 | CAGGTACG | -0.0473
122 | CGCAATCA | 0.114
123 | AAGCGATT | -0.099
124 | CCATAGTC | -0.0501
125 | ACAATGGT | -0.107

Row | Sequence | PBM E-score
126 | GAATGGTC | -0.0217
127 | ACCTGTAC | 0.0153
128 | ATTCCAGG | -0.12
129 | AACCCCAA | -0.0237
130 | GATAAGTA | 0.0753
131 | CCCGTCCA | 0.207
132 | AGACCTCG | -0.117
133 | GATCCGCA | 0.0791
134 | CCCGCATC | 0.206
135 | CCTGACAA | -0.238
136 | CGAACGAC | -0.0463
137 | CCAGGGTC | -0.133
138 | AGGCTGTC | -0.0851
139 | TACGGCAA | 0.137
140 | AGTACCTG | -0.223
141 | CCATTCTA | -0.284
142 | ACTTCGTG | -0.0376
143 | ACGCGGCT | 0.0652
144 | AGCTACAT | -0.185
145 | CGAAAATC | 0.0839
146 | TATCGTCA | -0.0711
147 | CGAGATCA | -0.0627
148 | CATTGCCA | -0.315
149 | CCACTCCA | -0.173
150 | CTTCGGGA | 0.131

Row | Sequence | PBM E-score
151 | CCGCGTGA | 0.139
152 | TCAAGCAA | -0.0991
153 | AGCCGACG | 0.232
154 | ACGGTGCT | 0.409
155 | CGGCAAGA | 0.183
156 | CCGGGTCG | 0.204
157 | GGCACTAA | 0.349
158 | ACCGGATG | 0.158
159 | AGGATGAT | -0.134
160 | CGACGCGA | -0.02
161 | GGCTCAGA | -0.102
162 | GGCATCCC | 0.052
163 | CGTGGTGA | -0.0451
164 | CCACACAA | -0.16
165 | ACTAGCAA | -0.132
166 | CATCCAGA | -0.136
167 | AGCCCACT | -0.13
168 | ACCCGATA | 0.114
169 | CGGCGCGA | 0.373
170 | CCACGCCA | -0.269
171 | GCTGGTAC | 0.0851
172 | ACGCGGAC | 0.241
